Data: PubChem BioAssay AID624296 (National Center for Advancing Translational Sciences (NCATS), 2012)
The campaign covered roughly 350,000 compounds. About 9,900 (2.8%) were called active. Inconclusive results, whose numbers are uncertain, are shown with a selection of clear calls. Calls come from the whole dose curve; as a rule, active = well fitted activation curve with a large enough effect; inconclusive = small, poorly fitted or top-dose-only effect; inactive = no such curve, though single readings can be large or run the other way. No potency is given beside an inconclusive call; the fits are too rough.

Assay: A quantitative high throughput screen for small molecules that induce DNA re-replication in MCF 10a normal breast cells. For activity, positive = re-replication: % of control where 0% means no effect. Note: nearly all actives have a fitted effect of over 50% in size.
Conditions: MCF 10A DNA re-replication, Hoechst nuclear intensity, 48 h; activity, positive = re-replication: at 46.1 µM (top of the series)
Potency is the fitted concentration of half-maximal effect; tags give direction and shape of the fitted curve.

Row | Compound | Potency | activity, positive = re-replication
1 | O=C1N(c2ccccc2C(F)(F)F)OC1(Cc1ccccc1)c1ccccc1 (stereo not given) | inconclusive [activator, single point] | –
2 | CCOC(=O)c1[nH]c(C)c(C(=O)NCCc2ccc(OC)cc2)c1C | inconclusive [activator, single point] | –
3 | Cc1ccccc1C1NC(c2ccccc2C)C(C)C(=O)C1C (stereo not given) | – | inactive: 19.9%
4 | Cc1ccc(-c2nc(C)c(C(=O)O)s2)cc1 | – | inactive: -8.45%
5 | CC12CCC3c4ccc(O)cc4CCC3C1CC(=NO)C2O (stereo not given) | – | inactive: 3.08%
6 | O=C(OCC1COc2ccccc2O1)c1c(F)cccc1F (stereo not given) | inconclusive [activator, single point] | –
7 | NC(=O)c1nsc(C(=O)N(c2ccc(F)cc2)C(C(=O)NCC2CCCO2)c2c[nH]c3ccccc23)c1N (stereo not given) | – | inactive: 20.7%
8 | Cc1nc2ccccc2c2oc(C(=O)NCCCN3CCCC(C)C3)cc12 (stereo not given) | inconclusive [activator, partial curve, poor fit] | –
9 | CCN(CC)CCCN=C1N[C@@H](c2cccc(C(F)(F)F)c2)C(C(=O)OC)=C(C)N1CC | inconclusive [activator, single point] | –
10 | Cc1ccc(NC(=O)c2cc(C)n(-c3ccccc3)c2C)cc1 | active: 3.26 µM | –
11 | CCCc1cc(C(=O)NNC(=S)NCC2CCCO2)cs1 (stereo not given) | – | inactive: 11.9%
12 | COc1cc(OC)cc(C(=O)N2CC(=O)Nc3ccccc32)c1 | active: 1.46 µM | –
13 | CCc1ccc(NC(=S)/N=C(\N)Nc2nc(C)c3cc(CC)ccc3n2)cc1 | inconclusive [activator, full curve] | –
14 | Cc1cccc(NC(=S)NCc2ccc(F)cc2)c1 | – | inactive: -1.25%
15 | Cc1cc(-c2ccccc2)nc(N/N=C/c2ccc([N+](=O)[O-])cc2)n1 | – | inactive: 8.52%
16 | O=C1C(Cl)=C(NCc2cccnc2)C(=O)c2ccccc21 | inconclusive [activator, single point] | –
17 | O=C(O)CCc1ccc(-c2cccs2)n1-c1ccc(C(=O)O)cc1 | inconclusive [activator, single point] | –
18 | Cc1ccc2c(c1)N(C(=O)CCC(=O)NC1CCCCCC1)CC(C)O2 (stereo not given) | – | inactive: 7.62%
19 | O=C(CCn1cccn1)Nc1ccc2c(c1)OCO2 | – | inactive: 1.98%
20 | CN(C(=O)COC(=O)c1ccccc1Nc1ccccc1)c1c(N)n(Cc2ccccc2)c(=O)[nH]c1=O | inconclusive [activator, single point] | –
21 | CC(=O)Nc1ccccc1OCC(=O)NC1CCCCC1C (stereo not given) | – | inactive: 15.4%
22 | Cc1ccc(NC(=O)CCS(=O)(=O)c2ccc3c(c2)NC(=O)C(C)S3)cc1Cl (stereo not given) | – | inactive: 0.0356%
23 | COc1cc(OC)c(OC)cc1CNC(=O)c1ccc(COc2ccccc2)cc1 | – | inactive: 7.72%

Row | Compound | Potency | activity, positive = re-replication
24 | Cc1nn(-c2ccccc2)c(Cl)c1C(=O)N1CCN(c2ncnc3c2cnn3-c2ccccc2)CC1 | inconclusive [activator, partial curve, poor fit] | –
25 | CN(C)c1ccc(NC(=O)c2ccc(Cn3cc([N+](=O)[O-])cn3)cc2)cc1 | inconclusive [activator, single point] | –
26 | O=C(NC(=S)Nc1cccc(C(F)(F)F)c1)c1ccc2nonc2c1 | inconclusive [activator, partial curve, poor fit] | –
27 | CC1=NN(C(=O)c2ccoc2C)C(O)(C(F)(F)F)C1 (stereo not given) | inconclusive [activator, partial curve, poor fit] | –
28 | O=C(CN1CCCCCCC1)NC(=O)NC1CCCCC1 | active: 16.4 µM | –
29 | CCc1cc(C(=O)COc2ccc(F)cc2)c(O)cc1O | inconclusive [activator, full curve, poor fit] | –
30 | Cc1ccc(C2=N/C(=C\c3cccs3)C(=O)N2Nc2ccccc2)cc1 | – | inactive: -3.01%
31 | CC(C)Oc1ccc(C(=O)NCCCNC(=O)c2ccccn2)cc1 | – | inactive: -3.87%
32 | O=C(CN1CCCCCC1)N1c2ccccc2Sc2ccc(C(F)(F)F)cc21 | inconclusive [activator, full curve, poor fit] | –
33 | C=CCOC(=O)C1=C(C)NC(SC)=C(C#N)C1c1cccs1 (stereo not given) | inconclusive [activator, single point] | –
34 | COCCCn1c(=N)c(C(N)=S)cc2c(=O)n3cccc(C)c3nc21 | inconclusive [activator, single point] | –
35 | CCn1c(=O)cc(OCC(=O)N2CCN(c3cccc(C(F)(F)F)c3)CC2)c2ccccc21 | inconclusive [activator, partial curve, poor fit] | –
36 | c1ccc(-c2nnn(C34CC5CC(CC(C5)C3)C4)n2)cc1 | inconclusive [activator, partial curve, poor fit] | –
37 | Cc1ccc(N(C(=O)NC2CCCCC2)C2=NCCCCC2)cc1 | inconclusive [activator, single point] | –
38 | O=C(c1ccccc1)N1CCC(c2nc(-c3ccc(S(=O)(=O)NCC4CCCO4)cc3)no2)CC1 (stereo not given) | inconclusive [activator, partial curve, poor fit] | –
39 | O=c1c2ccccc2nc(/C=C/c2ccccc2)n1CCc1ccccc1 | – | inactive: -3.05%
40 | COc1ccc(NC(=O)C2CCN(S(=O)(=O)c3ccc4c(c3)NC(=O)C(C)S4)CC2)cc1 (stereo not given) | inconclusive [activator, partial curve, poor fit] | –
41 | Nc1cc2c(cc1Br)[nH]c(=O)c1ccccc12 | inconclusive [activator, single point] | –
42 | O=C(Nc1ncnc2sc3c(c12)CCC3)c1ccco1 | inconclusive [activator, single point] | –
43 | COc1ccccc1CN(Cc1cc2c(C)ccc(C)c2[nH]c1=O)Cc1nnnn1Cc1ccco1 | inconclusive [activator, partial curve, poor fit] | –
44 | CN1CCCN(S(=O)(=O)c2ccc3ccccc3c2)CC1 | inconclusive [activator, single point] | –
45 | C=CCOC(=O)/C=C/C(=O)NC(N)=O | inconclusive [activator, single point] | –
